SMILES strings stand for the structures. Out of some 52,000 compounds screened, about 4,300 (8.3%) were called active. No stated cut-off is given here; in the data, active means survival mostly below about 52% (no sharp cut-off); inactive means mostly above about 56%. Some of the results follow.

The test deals with DeltatarO mutant. Nature of the test: S. aureus survival, RN4220 and DeltatarO strains – OD600, teichoic acid synthesis inhibitors, primary screen (AID 463173). The conditions noted are these: S. aureus RN4220 wild type/DeltatarO growth, OD600, 18 h, active compounds read low, screened at 18.75 µg/mL (by protocol).
Consider `CC(C)Cn1c(=O)c2ccccc2n2c(CCC(=O)N3CCN(c4cccc(Cl)c4)CC3)nnc12`, for which the survival is inactive: 76%.

Take `COCCCN(Cc1ccco1)C(=O)c1cc2c(s1)-c1ccccc1OC2`: the survival was active: -3%.

Regarding `Cc1ccc(NC(=O)C(=O)NCC(c2cccnc2)N2CCOCC2)cc1` (stereo not drawn), the survival was inactive: 82%.

`CC1CCN(C(=O)c2ccc3c(c2)N(Cc2ccccc2F)C(=O)c2ccccc2S3(=O)=O)CC1`: the survival is inactive: 80%.

Consider `COc1ccc(S(=O)(=O)n2nc(C)c(S(=O)(=O)N3CCCCC3)c2C)cc1`, for which the survival is inactive: 67%.

For `Cc1c(Cl)cccc1-n1ncc(C(=O)N2CCN(C)CC2)c1C1CCN(C(=O)OC(C)(C)C)CC1`, the survival was inactive: 94%.

Take `COc1ccc(CNC(=O)Cn2nc(C)n3cccc3c2=O)cc1`: the survival was inactive: 96%.

`COc1ccc(-c2nc(SCC(=O)NC3CCCC3)c(-c3ccc(OC)cc3)[nH]2)cc1`: the survival is inactive: 71%.

With `COc1ccccc1N1CCN(C(=O)c2cc3c(=O)n(C)c4ccccc4c3s2)CC1`, the survival was inactive: 73%.

Turning to `COc1ccc(S(=O)(=O)N(CCc2ccccc2)CC(=O)NCc2ccccc2)cc1`, the survival is inactive: 76%.

For the molecule `COCCN1C(=O)c2oc3cc(C)cc(C)c3c(=O)c2C1c1cccc(O)c1` (stereo not drawn), the survival was inactive: 71%.

Regarding `COc1ccc(CNC(=O)c2cc3c(-c4ccc(Cl)cc4)nn(C)c3s2)cc1`, the survival was inactive: 112%.

As for `CCOC(=O)c1cccc(NC(=O)Cn2nc3c(cc2=O)CCCC3)c1`, the survival was active: 37%.

On to `Cn1c(=O)n(C)c2cc(NS(=O)(=O)c3ccc(F)cc3)c(NCc3ccccc3)cc21`, for which the survival was inactive: 68%.

As for `Cc1ccc(N2CC(C(=O)NCCS(=O)(=O)N3CCN(c4ccccc4)CC3)CC2=O)cc1` (stereo not drawn), the survival is inactive: 77%.

Take `COc1ccc(CCNC(=O)Cn2cc(C(=O)c3ccc(Cl)cc3)c(=O)c3ccc(C)nc32)cc1OC`: the survival was inactive: 79%.

Take `CCOC(=O)C1CCN(c2nc3c(S(=O)(=O)c4ccc(Br)cc4)nnn3c3ccsc23)CC1`: the survival was inactive: 76%.

As to `FC(F)(F)c1cccc(-n2cc(-c3ccccc3)c3c(N4CCCCC4)ncnc32)c1`, the survival is inactive: 83%.

Turning to `CCCN(CCC)CCNC(=O)Cn1cnc2sc(C)c(S(=O)(=O)N3CCC(C)CC3)c2c1=O`, the survival is inactive: 67%.

On to `COc1ccc(C(=O)NCCn2cc(SCc3cccc(F)c3)c3ccccc32)cc1OC`, for which the survival was inactive: 52%.

On to `COc1ccccc1CNC(=O)CN1C(=O)CCc2cc(S(=O)(=O)N3CCCCC3)ccc21`, for which the survival is inactive: 81%.

Take `O=C(CSc1nc(-c2cccs2)nc2cc(=O)[nH]n12)Nc1ccccc1`: the survival was inactive: 73%.

In the case of `Cc1nn(-c2ccc(N3CCCCC3)nn2)c(C)c1CCC(=O)NCc1ccc(F)cc1`, the survival is inactive: 86%.
